Assay results as given in the supplement of paper PMC9151546.
Most values come without repeats; read them as rough.

Test system: CHO-K1
Assay: hypodiploid nuclei frequency (% of nucleated events); higher = more hypodiploid events (aneugenic)
Description: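 Flow-cytometric in vitro micronucleus assay (Litron MicroFlow) in CHO-K1 cells in 96-well plates, 19 concentrations (4.5-200 µM, n=1 per concentration). Without S9, cells were exposed for 24 h and sampled at 48 h. With Aroclor 1254-induced rat liver S9, cells were exposed for 3-4 h and sampled at 27-28 h. Read-outs are %MN and %hypodiploid nuclei relative to nucleated events, and relative survival as the nuclei-to-bead ratio versus the 1% DMSO vehicle control (x100).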
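Further: hypodiploid nuclei gated on a flow cytometer with 488 nm excitation after SYTOX Green staining, cultures at 37 °C, positive controls vinblastine without S9 and cyclophosphamide with S9.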

Cc1ccc(O)cc1C [3,4-Dimethylphenol]
hypodiploid nuclei frequency [%]
Settings | S9 metabolic activation: with S9, exposure time: 3-4 hours | S9 metabolic activation: without S9, exposure time: 24 hours
concentration: 4.53 (µM) | 0.1 | 0.66
concentration: 5.66 (µM) | 0.16 | 0.48
concentration: 7.07 (µM) | 0.28 | 0.52
concentration: 8.84 (µM) | 0.26 | 0.48
concentration: 11.1 (µM) | 0.34 | 0.5
concentration: 13.8 (µM) | 0.22 | 0.78
concentration: 17.3 (µM) | 0.24 | 0.44
concentration: 21.6 (µM) | 0.26 | 0.74
concentration: 27 (µM) | 0.44 | 0.7
concentration: 33.7 (µM) | 0.28 | 0.76
concentration: 42.2 (µM) | 0.34 | 0.76
concentration: 52.7 (µM) | 0.28 | 0.58
concentration: 65.9 (µM) | 0.14 | 0.72
concentration: 82.3 (µM) | 0.2 | 0.9
concentration: 103 (µM) | 0.16 | 1.04
concentration: 129 (µM) | 0.34 | 1.3
concentration: 161 (µM) | 0.34 | 1.68
concentration: 201 (µM) | 0.34 | 2.02

O=C(c1ccccc1)c1ccccc1 [Benzophenone]
hypodiploid nuclei frequency [%]
Settings | S9 metabolic activation: with S9, exposure time: 3-4 hours | S9 metabolic activation: without S9, exposure time: 24 hours
concentration: 4.5 (µM) | 0.28 | 0.34
concentration: 5.63 (µM) | 0.18 | 0.48
concentration: 7.04 (µM) | 0.2 | 0.54
concentration: 8.8 (µM) | 0.12 | 0.84
concentration: 11 (µM) | 0.24 | 0.74
concentration: 13.7 (µM) | 0.18 | 0.66
concentration: 17.2 (µM) | 0.22 | 0.84
concentration: 21.5 (µM) | 0.18 | 0.6
concentration: 26.8 (µM) | 0.26 | 0.84
concentration: 33.6 (µM) | 0.2 | 0.76
concentration: 41.9 (µM) | 0.16 | 1.18
concentration: 52.4 (µM) | 0.1 | 1.2
concentration: 65.5 (µM) | 0.22 | 1.1
concentration: 81.9 (µM) | 0.12 | 1.78
concentration: 102 (µM) | 0.16 | 2.7
concentration: 128 (µM) | 0.32 | 2.48
concentration: 160 (µM) | 0.3 | 4.5
concentration: 200 (µM) | 0.36 | 5.64
